According to the supplement of paper PMC3334620:
The full ranking holds about 33,000 sequences; the median of “E-score (-0.5 to 0.5)” is about -0.043, and the highest 2% start at about 0.37. The list shows a part of the results.

These sequences were tested against T1, Upc2 (UniProt Q12151) (assay: PBM E-score (8-mer binding enrichment) (E-score (-0.5 to 0.5)); higher = stronger / more preferred TF binding; most listed sequences are background and not binding sites). Conditions: protein concentration: 200 nM; construct: GST-full length.
T1 sequence: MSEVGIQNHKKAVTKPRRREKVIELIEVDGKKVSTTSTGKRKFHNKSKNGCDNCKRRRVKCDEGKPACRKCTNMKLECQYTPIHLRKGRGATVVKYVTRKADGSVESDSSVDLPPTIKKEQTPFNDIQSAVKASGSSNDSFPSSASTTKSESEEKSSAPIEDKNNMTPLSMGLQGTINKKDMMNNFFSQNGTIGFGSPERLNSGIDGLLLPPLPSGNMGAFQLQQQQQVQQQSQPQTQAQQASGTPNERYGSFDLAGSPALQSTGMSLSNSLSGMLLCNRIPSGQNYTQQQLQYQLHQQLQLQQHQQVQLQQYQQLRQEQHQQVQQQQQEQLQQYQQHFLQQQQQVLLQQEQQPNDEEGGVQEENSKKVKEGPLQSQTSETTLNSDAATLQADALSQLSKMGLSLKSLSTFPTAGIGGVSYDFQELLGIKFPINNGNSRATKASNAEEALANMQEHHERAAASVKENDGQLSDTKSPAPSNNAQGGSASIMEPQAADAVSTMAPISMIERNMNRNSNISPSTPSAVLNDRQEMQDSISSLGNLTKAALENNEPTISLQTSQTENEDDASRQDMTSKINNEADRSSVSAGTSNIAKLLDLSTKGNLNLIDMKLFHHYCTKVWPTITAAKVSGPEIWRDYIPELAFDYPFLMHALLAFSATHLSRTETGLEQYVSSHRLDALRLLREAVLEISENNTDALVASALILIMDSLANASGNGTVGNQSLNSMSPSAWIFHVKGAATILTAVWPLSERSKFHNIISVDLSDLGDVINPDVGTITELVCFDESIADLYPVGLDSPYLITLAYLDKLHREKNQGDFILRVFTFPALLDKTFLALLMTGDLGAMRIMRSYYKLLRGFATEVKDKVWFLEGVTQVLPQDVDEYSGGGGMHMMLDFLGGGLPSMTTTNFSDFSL
Method in brief: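 For each ungapped eight-base word taken together with its reverse complement, the Universal PBM Analysis Suite assigned an E-score. Binding data came from GST-tagged yeast transcription factors, applied at about 100-200 nM, on universal all-10-mer Agilent arrays made double-stranded by primer extension. Fluorescent anti-GST marked bound protein, and scans were normalised with masliner.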

Sequence | PBM E-score
AGCAGAAA | 0.174
ATGCTCAG | -0.202
AGAGATGA | -0.204
GTTGCTGA | -0.0941
CCTTTTCC | -0.107
ACAAACAC | 0.0554
GGTCAACA | -0.142
CATTTTGC | -0.109
CATCAACC | -0.00214
AACCAGCG | -0.0712
AGGGATAC | -0.00979
CAACACCA | -0.0541
GGTGATGA | -0.0814
GGAGATGA | -0.253
AAACGAAC | 0.471
CGCTACCA | -0.0165
TACGAGCA | 0.465
AGCTGACG | -0.19
GGACCAAC | -0.188
CGACATGA | 0.0914
TAGCTTCA | -0.203
CTACTTCC | -0.0779
TAGTGATA | -0.00764
CGAGGTAC | 0.316
AAATGGGC | -0.0697

Sequence | PBM E-score
ATATTCTA | 0.0819
CTTCATTA | -0.121
GACGTAGC | 0.0263
ACGCTACG | 0.365
CTGTCCTC | -0.247
GTCAGGTA | -0.0573
ATAGAGCA | -0.144
GTATGTGA | 0.231
CGTAAACA | 0.39
CATATGTA | -0.0834
CACATCGG | 0.0544
GGCACCTA | -0.127
AGCATCTA | -0.164
AGAGAATA | -0.165
AAACATTG | -0.14
AGTAATTC | 0.0634
AGTCGAGC | -0.152
TCCCTTCA | -0.0913
ACACCCAG | -0.225
AATAAGGG | -0.0545
CTATCCAA | -0.195
AACATCGG | -0.0699
ATTTAAGC | 0.168
CGAATCCA | 0.244
TGTATACA | 0.141

Sequence | PBM E-score
GTGCATTA | 0.024
GCAGCCTA | -0.02
TAACATCA | -0.00944
ACCCAGGG | -0.318
GAATCCGC | -0.126
TAGGACGA | -0.217
CCGACCGC | -0.128
ACGCGTCA | 0.214
GTCTGACA | -0.141
AGCTCGCC | 0.108
GCATCACA | -0.0251
GTCTTGCA | -0.146
AATCTACT | -0.107
GCATCGAA | 0.00261
GCCTACAC | 0.147
ATTCGTGG | -0.0645
CTGCGGGA | -0.18
AGACCGTG | -0.229
ACGTGAGC | -0.0218
AACTCTCC | -0.131
AGACATGC | -0.0678
TGCGTGAA | -0.167
CGAAACAG | 0.143
AGGTGCAT | -0.226
CAGCTGTC | -0.125

Sequence | PBM E-score
GCTACCAC | -0.207
AACACCGA | -0.224
AAGGGGTA | -0.188
ATGCATGA | -0.143
CTAGACTC | -0.317
AAGCCTAA | 0.0405
ATACCGTC | 0.0825
AAGTCTCC | -0.0843
CATGAGCA | -0.124
CAATTGTG | 0.00226
CGCAGATC | -0.0933
CGACTACG | 0.182
CTGATACA | -0.0514
AGCCACAC | -0.00233
AAACTCAT | 0.0367
CGGCGCCG | 0.0271
TAAACTCA | 0.0577
CGAGTCAA | 0.0766
CGGCGTCC | -0.128
CGAGCCCA | 0.087
AGTCGCCC | -0.204
ACCGCTAC | 0.14
AAGTCATT | -0.0837
CAATGAGC | -0.258
TATAAAAA | 0.144

Sequence | PBM E-score
AGAGGTAG | -0.248
GCTGGTAA | -0.186
CGGCATCA | 0.0887
CTCGAGAA | 0.0603
GTAAAACA | 0.156
AGTAGTTA | -0.103
AGTCGGAT | 0.114
CGCTATGA | -0.0537
ATGCTAGG | -0.0841
ACTATACA | 0.11
CGAGGGTA | 0.161
TAATATGA | -0.00428
CGTAATGA | 0.191
ATAAGGAT | 0.0152
ACAGCTTA | 0.0103
CTTGAAGA | -0.22
ATTGCGTA | 0.296
AAGTGGCC | -0.287
AAGTACTA | 0.0981
AATGACGT | -0.132
ATAGCTAT | 0.111
CATCCGCG | 0.0291
TGATCCAA | -0.132
AAAAGCTA | 0.024
ATAAAGTA | -0.00136

Sequence | PBM E-score
CACCCTCA | -0.288
AGTACCCA | -0.131
CTGCTCCC | -0.212
TCCTTAAA | -0.0228
GGGTTTTA | 0.0495
ACGCCCGG | -0.136
CGGGGCTA | -0.0798
AAGTCTTG | -0.0567
CTTTACTC | -0.0508
AAATCACG | 0.0508
CCCTCAGC | -0.0983
CCCGCGGC | -0.0659
GGCCTCAA | -0.068
AGCCCCGG | -0.0242
CATACATG | 0.0019
GGGCGCGA | 0.0873
CTCCAAGC | -0.145
AGAGGAAG | -0.244
CAGCCTCC | -0.258
ATGTTACG | 0.276
ACTCGCAA | 0.177
TCCGCAGA | -0.22
ATCCGCGC | 0.0258
AATCTCGG | 0.0584
GATCAACA | -0.117

Sequence | PBM E-score
CGTGAGAC | -0.0838
AAACCTGG | -0.271
CACGAGCA | -0.0761
ACTCAAAC | 0.121
GACTTACC | -0.0121
CTCAGCGC | -0.217
GGGGGGTA | -0.313
AACAATTG | -0.0877
ACAACAGT | -0.158
AACGGCAT | 0.252
CAGATGAC | -0.217
CTACTAGC | 0.0962
ACGACCCC | 0.188
GGCCCCCA | -0.3
CTTACCAA | 0.0826
CTATACCC | 0.0307
TGTCACAA | -0.0828
ACTAACCT | 0.042
CGGACGAG | -0.165
AATGAATA | 0.0213
GTACCGCA | 0.254
CCAACACG | 0.0432
